Measured values published in PubChem BioAssay AID360 (National Center for Advancing Translational Sciences (NCATS), 2006).
Among all 48,000 compounds or so, about 550 (1.1%) were called active. About 4% were inconclusive and are not listed. No stated cut-off is given here; in the data, active means potency below about 15 µM; inconclusive means mostly about 16 µM to 33 µM; inactive means weaker than that. The list shows a part of the results.

molecular target: Lysosomal acid glucosylceramidase (Homo sapiens) (UniProt P04062); assay: Glucocerebrosidase; conditions: purified enzyme, resorufin glucoside fluorescence (screen aimed at inhibitors), 20 min;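 further: the screen sought inhibitors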
UniProt P04062, sequence (P04062 whole entry, looked up): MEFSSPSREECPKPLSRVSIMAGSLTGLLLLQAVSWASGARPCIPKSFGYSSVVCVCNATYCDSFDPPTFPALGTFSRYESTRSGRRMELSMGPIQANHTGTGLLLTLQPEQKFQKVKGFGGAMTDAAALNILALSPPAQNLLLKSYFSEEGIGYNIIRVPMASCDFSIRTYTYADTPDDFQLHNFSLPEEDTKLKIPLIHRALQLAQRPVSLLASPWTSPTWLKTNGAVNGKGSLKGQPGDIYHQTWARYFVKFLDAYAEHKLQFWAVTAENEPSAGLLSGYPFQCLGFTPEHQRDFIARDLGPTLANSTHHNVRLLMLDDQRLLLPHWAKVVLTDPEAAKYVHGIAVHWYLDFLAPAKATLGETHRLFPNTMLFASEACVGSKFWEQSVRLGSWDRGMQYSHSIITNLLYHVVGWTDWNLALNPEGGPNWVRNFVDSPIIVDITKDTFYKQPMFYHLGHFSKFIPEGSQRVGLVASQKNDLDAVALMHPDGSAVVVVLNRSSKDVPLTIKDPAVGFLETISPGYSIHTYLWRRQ
How it was run: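 Compounds titrated against 0.2 nM normal enzyme, 30 uM resorufin beta-D-glucopyranoside substrate, citrate/phosphate buffer with taurocholate and tween-20, pH 5.9. Reaction ran 20 min at room temperature; fluorescence (Ex 548/Em 600) gave AC50.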
Potency means the concentration at half of the fitted maximal effect.

SMILES | Potency
Fc1ccccc1OCCCCn1cncn1 | inactive: > 76.9 µM
O=C(O)c1ccc(S(=O)(=O)Nc2ccc(F)c(Cl)c2)cc1 | inactive: > 76.9 µM
O=C(NCc1ccccc1)c1cnsn1 | inactive: > 76.9 µM
COc1ccc(C)cc1S(=O)(=O)N(C)CC(=O)Nc1ccc2c(c1)OCO2 | inactive: > 76.9 µM
COC(=O)C(C)Sc1nc2c(c(=O)[nH]c(=O)n2C)n1CCC(C)C (configuration not stated) | inactive: > 76.9 µM
CN1C=C(C(F)(F)F)C=C/C1=C(\C#N)c1nnc2n1CCCCC2 | inactive: > 76.9 µM
CN(C)CCN1CC(C(=O)O)CC1=O (configuration not stated) | inactive: > 76.9 µM
CN(C)CCNC(CC(=O)Nc1ccc(Cl)c(Cl)c1)C(=O)O (configuration not stated) | inactive: > 76.9 µM
COC(=O)N1CCN(c2ccc(OC)cc2)CC1 | inactive: > 76.9 µM
COc1ccccc1CN1C(=O)CCC1(C)C(=O)NCc1cccnc1 (configuration not stated) | inactive: > 76.9 µM
CN(c1ccc(C(=O)NCc2ccco2)cc1)S(C)(=O)=O | inactive: > 76.9 µM
CCOC(=O)N1CCN(Cc2ccccc2Cl)CC1 | inactive: > 76.9 µM
COc1ccc(N2CCN(C(=O)CC3NC4CCCCC4NC3=O)CC2)cc1 (configuration not stated) | inactive: > 76.9 µM
COc1cc(C2C(C#N)=C(N)Oc3cc(N(C)C)ccc32)cc2c1OCO2 (configuration not stated) | inactive: > 76.9 µM
CCOC(=O)N1CCN(C(=O)CCCN2C(=O)CSc3nc(C)cc(C)c32)CC1 | inactive: > 76.9 µM
O=C(CSc1nnnn1Cc1ccccc1)N1CCN(c2ccccc2)CC1 | inactive: > 76.9 µM
COCCn1nnnc1C(c1cc2ccc(C)cc2[nH]c1=O)N(Cc1ccco1)Cc1cccs1 (configuration not stated) | inactive
Cc1nnc(SCCn2c(N(C)Cc3ccccc3)nc3c2c(=O)n(C)c(=O)n3C)s1 | inactive: > 76.9 µM
Nc1ccc(CN2CCN(c3ccc4ccccc4n3)CC2)cc1 | inactive: > 76.9 µM
CC1(C)Oc2ccc(C(=O)N3CCCCC3)cc2N(CC(=O)NCc2ccccc2)C1=O | inactive: > 76.9 µM
CCOC(=O)N1CCN(C(=O)c2ccc(CS(=O)(=O)c3ccccc3OC)o2)CC1 | inactive: > 76.9 µM
O=C(Nc1nccs1)Oc1ccccc1 | inactive: > 76.9 µM
CC(OC(=O)CCc1nc2ccccc2[nH]c1=O)C(=O)c1ccccc1 (configuration not stated) | inactive: > 76.9 µM

SMILES | Potency
CCn1c(SCC(=O)N2CCN(c3ccc(Cl)cc3)CC2)nc2ccccc2c1=O | inactive: > 76.9 µM
COc1ccc(C(=O)NCC(c2ccc(F)cc2)N2CCOCC2)cc1S(=O)(=O)N1CCCC1 (configuration not stated) | inactive: > 76.9 µM
CCNC(=O)NC1(C(=O)Nc2ccc3c(c2)CCC3)CCCCC1 | inactive: > 76.9 µM
O=C(CSc1nc2ccccc2c(=O)[nH]1)Nc1ccc(S(=O)(=O)N2CCCC2)cc1 | inactive
O=C1NC2C(NC(=O)N2C2CCCCC2)N1C1CCCCC1 (configuration not stated) | inactive: > 76.9 µM
O=C(Nc1nnc(-c2ccccc2Cl)o1)c1ccco1 | inactive: > 76.9 µM
Cc1cnc(C(=O)Nc2ccccc2C(=O)N2CCOCC2)cn1 | inactive: > 76.9 µM
CCCCN(C)C(=O)C1CCN(C/C(C)=C/c2ccccc2)CC1 | inactive: > 76.9 µM
CCOC(=O)N1CCC(N(CCOC)C(=O)Nc2ccc(CC)cc2)CC1 | inactive: > 76.9 µM
N#CC(C(=O)NCCc1ccccc1)c1nc2ccccc2nc1N1CCOCC1 (configuration not stated) | inactive: > 76.9 µM
CCOc1cc(C(=S)N2CCN(C)CC2)ccc1OCC(=O)N1CCOCC1 | inactive: > 76.9 µM
COC(=O)c1cc2oc(C)cc2n1CC(=O)N(C)c1ccccc1 | inactive
Cc1ccc(NC(=O)N2C(=O)C3(OCCO3)c3ccccc32)cc1 | inactive: > 76.9 µM
COc1cccc(-c2nnc(SCCC(=O)O)n2C)c1 | inactive: > 76.9 µM
O=C(c1ccc(F)cc1)N1CCN(c2ncccn2)CC1 | inactive: > 76.9 µM
Cc1cccc(CN2CCN(CC(=O)NCCCN3CCCC3=O)C2=O)c1 | inactive: > 76.9 µM
COc1ccc2nc(NC(=O)CCc3nc(-c4ccccc4F)no3)sc2c1 | inactive: > 76.9 µM
COc1ccc2[nH]c(=O)c(CN(C(C)=O)C3CCCCC3)cc2c1 | inactive: > 76.9 µM
Cc1ccc(CNn2cnnc2SCC(=O)NC(C)(C)C)cc1 | inactive: > 76.9 µM
O=C1NC(c2ccc3c(c2)OCO3)Nc2ccccc21 (configuration not stated) | inactive: > 76.9 µM
O=C(NCc1cccs1)C1CCCN1S(=O)(=O)c1ccccc1F (configuration not stated) | inactive: > 76.9 µM
CC(C)OCCCNc1nc2c(c(=O)n(Cc3ccccc3F)c(=O)n2C)n1C | inactive: > 76.9 µM
CCOC(=O)c1c(C)c(C(=O)NCc2ccccn2)c(C)n1CC | inactive: > 76.9 µM

SMILES | Potency
Cn1c(=O)cc(SCC(=O)N2CCN(C3CCCCC3)CC2)c2ccccc21 | inactive: > 76.9 µM
CN1c2cccc3cccc(c23)N(C)C1(C)C | inactive: > 76.9 µM
O=S(=O)(c1ccc(Oc2ccc3oc4ccccc4c3c2)nc1)N1CCCC1 | inactive: > 76.9 µM
COc1cc(OC)c(C2C(C(=O)Nc3ccc(C)cc3C)=C(C)Nc3ncnn32)cc1OC (configuration not stated) | inactive: > 76.9 µM
O=C(NCc1cccc(Cl)c1)c1ccco1 | inactive: > 76.9 µM
CCOC(=O)C1=C(C)NC(=O)NC1c1cc(C)sc1C (configuration not stated) | inactive: > 76.9 µM
CCCNS(=O)(=O)c1ccc(CCC(=O)NCc2ccco2)cc1 | inactive: > 76.9 µM
C1=C(CCNC2=NCCCCC2)CCCC1 | inactive: > 76.9 µM
Oc1ccccc1Oc1ncc(Br)c(N2CCOCC2)n1 | inactive: > 76.9 µM
COc1cccc(OC)c1OCCCOc1c(OC)cccc1OC | inactive: > 76.9 µM
COc1ccc2[nH]cc(C(=O)CN3CCCCC3C)c2c1 (configuration not stated) | inactive: > 76.9 µM
CCOC(=O)c1c(NC(=O)CSc2nnnn2C)sc(CC)c1C | inactive: > 76.9 µM
COC(=O)CSc1nc2c(c(-c3ccc(C)o3)c1C#N)CCCC2 | active: 15.3 µM
CC1CCCCC1NC(=O)C1CCN(C(=O)NC2CCCCC2)CC1 (configuration not stated) | inactive: > 76.9 µM
CCOc1ccccc1-n1c(COc2ccccc2)nnc1SCC(N)=O | inactive: > 76.9 µM
O=C(Cn1cnc2c(oc3ccccc32)c1=O)c1ccccc1 | inactive: > 76.9 µM
Cc1ccc(Cn2c(CN3CC(C)OC(C)C3)nc3c2c(=O)[nH]c(=O)n3C)cc1 (configuration not stated) | inactive: > 76.9 µM
O=C(c1cc2ccccc2c(=O)o1)N1CCc2ccccc2C1 | inactive: > 76.9 µM
CCOc1cc(-c2c(C#N)c(N)nc3c2CCCC3C)ccc1O (configuration not stated) | inactive: > 76.9 µM
COCCn1c(NCc2ccccc2)nc2c1c(=O)[nH]c(=O)n2C | inactive: > 76.9 µM
O=C(Cc1ccc(S(=O)(=O)N2CCOCC2)s1)NCC1CCCCC1 | inactive: > 76.9 µM
CCOC(=O)/C=c1\s/c(=C\c2ccccc2OC)c(=O)n1CC(=O)N1CCOCC1 | inactive: > 76.9 µM
CC(=O)c1cccc(NC(=O)N[C@@H](CC(C)C)C(=O)O)c1 | inactive: > 76.9 µM

SMILES | Potency
Cc1cccc(-n2nc3c(c2NC(=O)c2ccc(S(=O)(=O)N4CCOCC4)cc2)CSC3)c1C | inactive: > 76.9 µM
CCn1cc(C(=O)NCC2CCCO2)c(=O)c2cc(S(=O)(=O)N3CCCCCC3)ccc21 (configuration not stated) | inactive: > 76.9 µM
Cc1nn(-c2ccccc2)c(Cl)c1C1C(C#N)=C(N)OC2=C1C(=O)CCC2 (configuration not stated) | inactive
CS(=O)(=O)Nc1ccc(N2CCCCC2)c(Cl)c1 | inactive: > 76.9 µM
O=C(NCc1ccccc1)N1CCN(c2ccccc2F)CC1 | inactive: > 76.9 µM
Cc1cccc2cc(C(c3nnnn3CC3CCCO3)N3CCCc4ccccc43)c(=O)[nH]c12 (configuration not stated) | inactive: > 76.9 µM
Oc1ccc(-c2nnc(SCC3CCCCC3)o2)cc1 | inactive: > 76.9 µM
O=C(Nc1cccnc1)c1c(F)cccc1F | inactive: > 76.9 µM
COc1ccc(-n2nnnc2SC(C)C(N)=O)cc1 (configuration not stated) | inactive: > 76.9 µM
CCCc1nnc(NC(=O)CCC(=O)N2CCCCCC2)s1 | inactive: > 76.9 µM
CCCCN(C(=O)NC(=O)Nc1ccccc1OCC)S(C)(=O)=O | inactive: > 76.9 µM
COc1cc(C(C)=O)ccc1OCC(=O)c1cc(C)n(C2CC2)c1C | inactive: > 76.9 µM
CCc1ccc(NC(=O)c2cc(C(C)C)on2)cc1 | inactive: > 76.9 µM
CCCNC(=O)NC(C(=O)OC)C12CC3CC(CC(C3)C1)C2 (configuration not stated) | inactive: > 76.9 µM
CCc1c(C)sc(NC(=O)CC#N)c1C#N | inactive: > 76.9 µM
COc1ccc(-c2nc(NC(=O)CSc3nnc(C)s3)ns2)cc1 | inactive: > 76.9 µM
O=C(Cn1ncc2ccccc21)N1CCN(c2cccc(C(F)(F)F)c2)CC1 | inactive: > 76.9 µM
CCN(CC)CCNc1nc2c(c(=O)[nH]c(=O)n2C)n1CC(O)COc1ccc(Cl)cc1Cl (configuration not stated) | inactive: > 76.9 µM
Cc1ccc(C)c(NC(=O)CNS(=O)(=O)c2ccccc2)c1 | inactive: > 76.9 µM
CCc1ccc2[nH]c(=O)c(CN(CCCN3CCOCC3)C(=O)Nc3ccccc3)cc2c1 | inactive
CCOC(=O)C1CCCN(CCC(=O)Nc2c(C(=O)OC)[nH]c3cc(OC)ccc23)C1 (configuration not stated) | inactive: > 76.9 µM
O=C1C2C3C=CC(C3)C2C(=O)N1Cc1ccccc1 (configuration not stated) | inactive: > 76.9 µM
Cc1nn(C)cc1CNC(=O)C1C2CCC(O2)C1C(=O)O (configuration not stated) | inactive: > 76.9 µM
